Measurements reported in US20250163161A1.

Experiments:
[1] = molecular target: PD-L1 on cells (A431; cells of the Promega PD-L1 blockade assay kit) (UniProt Q9NZQ7); assay: cell-based or functional assay
[2] = molecular target: programmed death-ligand 1 (PD-L1), soluble, as used in BLI (UniProt Q9NZQ7); assay: BLI

B1: ICI2_H2 (HCP-LCE heavy chain combined with an unrelated light chain) (antibody, part only; not given: Unrelated light chain, part only)
heavy: AVTLDESGGGLQTPGGALSLVCKASGFDFSSYDMAWVRQAPGKGLEWVAGIKSNGPWTNYGAAVKGRATISRDNGQSTVRLQLNNLRAEDTAIYYCAKPGAGYVGWDAAGTIDSWGHGTEVIVSSASTKGPSVFPLAPSSKSTSGGTAALGCLVKDYFPEPVTVSWNSGALTSGVHTFPAVLQSSGLYSLSSVVTVPSSSLGTQTYICNVNHKPSNTKVDKRV[left out - human IgG1 Fc with changes]
What does the source list for B1?
EC50, cell-based PD-1/PD-L1 blockage assay (luciferase activity) [1]: 8.6 nM; Kd [2]: 28.8 nM; koff [2]: 0.0035 s⁻¹; kon [2]: 122000 M⁻¹ s⁻¹
